The record followed here is PubChem BioAssay (NCI).

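In this assay, cells in 96-well plates receive the compound at five concentrations for 48 hours. Endpoints are linearly interpolated between the surrounding concentrations. Here, GI50 denotes the concentration required for 50% inhibition of growth. The concentration for full growth arrest is given as TGI.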

This assay concerns NCI-H322M lung. The assay can be described thus: NCI tumour cell line growth inhibition, 48 h.
Consider `CCOc1ccccc1NC1=C(Cl)C(=O)c2nc(C)ccc2C1=O`, for which the GI50 is 2.22 µM and the TGI came out at 7.91 µM.
Taken in the same sequence, the figures for `O=C(Nc1cccc(Cl)c1)Nc1nc2ccc([N+](=O)[O-])cc2s1` were 0.565 µM and 3.47 µM.
Taken in the same sequence, the figures for `O=C(N/N=C\c1ccc(Cl)cc1)c1ccc2nc(-c3ccc(Br)cc3)[nH]c2c1` were 2.32 µM and 6.33 µM.
In the case of `Nc1cc(-c2c[nH]c3ccc(Br)cc23)nc2cc(-c3c[nH]c4ccc(Br)cc34)nn12`, the GI50 was 1.44 µM and the TGI was found to be 3.42 µM.
Taken in the same sequence, the figures for `CC(=O)Nc1cccc(Nc2nc(N[C@@H](C)c3ccccc3)c3ccccc3n2)c1` were 0.756 µM and 13.2 µM.
